Measurements as given in the supplement of paper PMC3334620.
Over roughly 33,000 sequences, “E-score (-0.5 to 0.5)” has its median near -0.056; the highest 2% begin near 0.38. The list shows a part of the results.

Target: Stb4 (UniProt P50104)
Assay: PBM E-score (8-mer binding enrichment) (E-score (-0.5 to 0.5)); higher = stronger / more preferred TF binding; most listed sequences are background and not binding sites
Details: protein concentration: 200 nM; construct: GST-DNA-binding domain
In short: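 Universal all-10-mer Agilent arrays, double-stranded by primer extension on fresh or once-stripped slides, were probed with about 100-200 nM GST-tagged yeast transcription factors made by PURExpress. Fluorescent anti-GST detected bound protein, and masliner normalised the scans. E-scores from the Universal PBM Analysis Suite were given to each ungapped eight-base word pooled with its reverse complement.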

Row | Sequence | PBM E-score
1 | TAGATCTA | -0.187
2 | ATATCAAA | 0.0972
3 | TATGCGGA | 0.248
4 | ACGGATTC | 0.178
5 | CGCACGCA | -0.137
6 | AGCTCGGA | 0.454
7 | CAGGGACA | -0.114
8 | GTATTTCA | -0.0703
9 | GCTGGCCA | -0.0829
10 | ACAGACAA | 0.0517
11 | CCTACTTA | -0.262
12 | AGACGGGC | 0.0785
13 | AAGTCTCT | -0.285
14 | CAATGTGA | -0.241
15 | GAGCTCAC | -0.208
16 | ATCTACAG | 0.0365
17 | CGCTGGGA | -0.039
18 | AAATATCG | 0.17
19 | TCTGTAAA | 0.0311
20 | ACCAAGGT | -0.125
21 | ACCATCCT | -0.249
22 | CACCCCAC | 0.0245
23 | AGTGTTGG | 0.0126
24 | TAGGAAGA | -0.21
25 | CGTTGTTA | -0.092

Row | Sequence | PBM E-score
26 | GAGGCGCC | -0.0953
27 | CGAGTACG | 0.042
28 | CAACTACG | -0.0502
29 | AATCAGCT | -0.0678
30 | CGTGACGC | -0.134
31 | CAAACCCC | -0.0815
32 | AACAGCGT | -0.0731
33 | CTGAGGCC | 0.0212
34 | TGCTAGAA | 0.029
35 | GTCTCCTA | -0.269
36 | ATTAACTG | -0.117
37 | GATCGGAA | 0.425
38 | GATAATGC | -0.0171
39 | GAATAAGC | -0.0696
40 | ACAAAGAA | -0.019
41 | ATCGGTAA | 0.336
42 | AGGCACAG | -0.199
43 | AGCCTTGA | -0.0997
44 | CACGGGCG | 0.12
45 | CTAGGGTC | -0.226
46 | CAGACACA | -0.186
47 | AGTTGCTA | 0.121
48 | CGAGGCAA | 0.217
49 | CGAATAAA | 0.0743
50 | TCACTCGA | -0.126

Row | Sequence | PBM E-score
51 | AATTATGC | 0.0691
52 | GCCTCAGC | -0.219
53 | CCGCCCGG | 0.328
54 | GAGCAGTA | 0.0469
55 | CATCTATA | -0.101
56 | AATGATCA | -0.176
57 | GCATTCGC | -0.128
58 | TGAGTCAA | -0.0907
59 | AGCCAGCA | -0.264
60 | CTACTTTA | -0.155
61 | CTCGTGTC | -0.196
62 | AACGGTAC | 0.172
63 | ATAGCTAA | -0.178
64 | ATGGCTAA | -0.0251
65 | AAACGCGG | 0.227
66 | GTTCACGA | -0.107
67 | AAGATTCT | -0.229
68 | GGATGTAC | 0.0116
69 | CAGTTCTA | -0.113
70 | CTCTACAG | -0.151
71 | ATTAAGCC | 0.252
72 | CTCTGAAA | 0.0179
73 | AGCGACCA | -0.219
74 | ACTAGGAA | -0.143
75 | ATCTCCCG | 0.332

Row | Sequence | PBM E-score
76 | CGTTAGTC | -0.017
77 | AATTAGGT | -0.0926
78 | CGGACGTA | 0.203
79 | CCGCCGAC | 0.217
80 | ATCGAATC | 0.00298
81 | GCAAATGC | -0.169
82 | ACATGTCC | -0.041
83 | CAGTACAA | -0.117
84 | AAAAGCTT | 0.0879
85 | GTACGGGA | 0.222
86 | AATCTCAC | -0.106
87 | ATTTCAAG | -0.168
88 | GGCAGTAC | -0.0185
89 | CCATTGGG | -0.255
90 | GTATACAA | -0.045
91 | GCGCATCC | 0.133
92 | AAGAGAGA | -0.307
93 | GCCGGTAC | 0.134
94 | CATCCTCA | -0.154
95 | AATTCCAG | 0.00849
96 | AATTTAAG | -0.0441
97 | CAGTGATA | -0.0876
98 | GAATACAA | 0.129
99 | GCGAAAGA | -0.166
100 | AGCGAAAT | 0.0212

Row | Sequence | PBM E-score
101 | CGTTGCGC | -0.00815
102 | GACAAAAA | 0.127
103 | CGAAGGTC | 0.189
104 | ATCGGGGG | 0.195
105 | ATTGGCTC | -0.0924
106 | ACGCCCTC | -0.0266
107 | ATCTATGG | -0.184
108 | AATGGGTG | 0.0109
109 | ATACTTGG | -0.115
110 | GGGGAGTA | -0.0839
111 | AAAGGCCG | 0.0672
112 | GTGTCAAA | -0.04
113 | ACGAGACA | -0.11
114 | ATTCACTC | 0.0122
115 | AAAACCAA | -0.0185
116 | ACTGTTCT | -0.164
117 | ATGAATTA | -0.0639
118 | CCTACGTC | -0.0541
119 | CATTAACC | 0.0201
120 | ATCAGTCG | 0.018
121 | CATTCCCG | 0.328
122 | AGGAAACA | -0.0661
123 | AGGATAAA | -0.0635
124 | AATTCGCG | -0.0343
125 | ACCAACGC | 0.00824

Row | Sequence | PBM E-score
126 | CTGATGGC | -0.0293
127 | ATTGTTAG | -0.172
128 | GTATTCTA | -0.18
129 | TAGCTCGA | -0.131
130 | AATTTGTA | 0.138
131 | CCTTCTGC | -0.17
132 | GACGACCA | -0.2
133 | AATCAGCA | -0.244
134 | ACAACATA | -0.156
135 | CCATCACG | -0.063
136 | AGACTTGG | -0.155
137 | ACACGACC | -0.146
138 | GTAGTGCA | -0.128
139 | GAACTGTA | -0.0192
140 | CTGTCAAC | -0.237
141 | CTGCTCAC | -0.294
142 | CAAATAGG | -0.131
143 | GGCATCAA | -0.197
144 | ACCTGCGA | -0.196
145 | ATAGTTCC | 0.264
146 | AACTAACT | 0.0909
147 | GCCGGTAA | 0.306
148 | CCGGCCTC | 0.234
149 | CATCTCGA | -0.252
150 | TCAAAAGA | -0.149

Row | Sequence | PBM E-score
151 | GCAGAACC | -0.0538
152 | CAAATTCG | 0.237
153 | GAATCTTA | -0.0785
154 | ATAAGTGC | -0.0881
155 | CAAAACCA | -0.15
156 | GTCTCAAA | -0.0192
157 | GATTCACA | -0.094
158 | AAAACCTG | -0.253
159 | GTAGGGAA | -0.0829
160 | GTGGCTGA | -0.0157
161 | ACAGCTTC | 0.0141
162 | GTCTTACA | -0.193
163 | CAGTTTAG | -0.227
164 | CGGGATGA | 0.269
165 | CAAACCTC | -0.155
166 | CGTCCTGA | -0.249
167 | CCCTCGTC | 0.0826
168 | CTCAAAAC | -0.146
169 | CTCTAAGA | -0.00116
170 | GACTCAAA | -0.137
171 | CCTGCCCC | -0.147
172 | CCACTTAG | -0.241
